Measurements as given in the supplement of paper PMC10928670.

Experiments:
Assay in all cases: Agar dilution by CLSI M07.
[1] = compound: CN[C@@H]1[C@H](O)[C@H](NC)[C@H]2O[C@@]3(O)C(=O)C[C@@H](C)O[C@H]3O[C@@H]2[C@H]1O [spectinomycin]
[2] = compound: C=CC1=C(C(=O)O)N2C(=O)[C@@H](NC(=O)/C(=N\OCC(=O)O)c3csc(N)n3)[C@H]2SC1 [cefixime]
[3] = compound: CC1(C)S[C@@H]2[C@H](NC(=O)Cc3ccccc3)C(=O)N2[C@H]1C(=O)O [penicillin G]
[4] = compound: CC[C@H]1OC(=O)[C@H](C)[C@@H](O[C@H]2C[C@@](C)(OC)[C@@H](O)[C@H](C)O2)[C@H](C)[C@@H](O[C@@H]2O[C@H](C)C[C@H](N(C)C)[C@H]2O)[C@](C)(O)C[C@@H](C)CN(C)[C@H](C)[C@@H](O)[C@]1(C)O [azithromycin]
[5] = compound: CO/N=C(\C(=O)N[C@@H]1C(=O)N2C(C(=O)O)=C(CSc3nc(=O)c(O)nn3C)CS[C@H]12)c1csc(N)n1 [ceftriaxone]

Test System	MIC [1] [µg/mL]	MIC [2] [µg/mL]	MIC [3] [µg/mL]	MIC [4] [µg/mL]	MIC [5] [µg/mL]
Neisseria gonorrhoeae isolate 33 (GyrA: S91F, D95G, ParC: Wild type, mtrR: -35A Del, penA: Type XIII NonMosaic, A501V, A517G, ponA: L421P, porB: G120K, A121D)	64	0.25	2	0.125	0.25
Neisseria gonorrhoeae isolate 34 (GyrA: Wild type, ParC: Wild type, mtrR: G45D, penA: Type I NonMosaic, ponA: Wild type, porB: G120D)	16	≤ 0.015	0.125	0.25	≤ 0.015
Neisseria gonorrhoeae isolate 35 (GyrA: Wild type, ParC: Wild type, mtrR: Wild type, penA: Type I NonMosaic, ponA: Wild type, porB: Wild type)	16	≤ 0.015	0.25	0.125	≤ 0.015
Neisseria gonorrhoeae isolate 36 (GyrA: Wild type, ParC: Wild type, mtrR: -35A Del, G45D, penA: Type II NonMosaic, A517G, ponA: L421P, porB: G120K, A121D)	16	≤ 0.015	> 64	0.25	≤ 0.015
Neisseria gonorrhoeae isolate 37 (GyrA: Wild type, ParC: Wild type, mtrR: Wild type, penA: Type I NonMosaic, ponA: Wild type, porB: Wild type)	32	≤ 0.015	0.125	0.125	≤ 0.015
Neisseria gonorrhoeae isolate 38 (GyrA: Wild type, ParC: Wild type, mtrR: Wild type, penA: WT NonMosaic, ponA: Wild type, porB: porB1a)	32	≤ 0.015	≤ 0.03	0.25	≤ 0.015
Neisseria gonorrhoeae isolate 39 (GyrA: S91F, D95G, ParC: Wild type, mtrR: -35A Del, penA: Type V Nonmosaic, A517G, G543S, ponA: L421P, porB: Wild type)	32	≤ 0.015	1	0.25	≤ 0.015
Neisseria gonorrhoeae isolate 40 (GyrA: Wild type, ParC: Wild type, mtrR: A39T, penA: Type II NonMosaic, A517G, ponA: Wild type, porB: Wild type)	32	≤ 0.015	0.25	0.125	≤ 0.015
Neisseria gonorrhoeae isolate 41 (GyrA: S91F, D95G, ParC: Wild type, mtrR: -35A Del, penA: Type V Nonmosaic, A517G, G543S, ponA: L421P, porB: G120K, A121D)	16	≤ 0.015	2	0.25	0.03
Neisseria gonorrhoeae isolate 42 (GyrA: S91F, D95G, ParC: Wild type, mtrR: G45D, penA: Type IV NonMosaic, A517G, G543S, ponA: L421P, porB: G120K, A121D)	16	≤ 0.015	1	0.25	0.03
Neisseria gonorrhoeae isolate 43 (GyrA: S91F, D95G, ParC: Wild type, mtrR: -35A Del, penA: Type XIII NonMosaic, A501V, A517G, ponA: L421P, porB: G120K, A121D)	16	0.5	4	0.25	0.25
Neisseria gonorrhoeae isolate 44 (GyrA: Wild type, ParC: Wild type, mtrR: G45D, penA: Type XXI NonMosaic, A501V, A517G, ponA: L421P, porB: G120K, A121D)	16	0.03	0.5	0.125	0.03
Neisseria gonorrhoeae isolate 45 (GyrA: Wild type, ParC: Wild type, mtrR: G45D, penA: Type XXII NonMosaic, A517G, ponA: Wild type, porB: Wild type)	8	≤ 0.015	0.25	0.06	≤ 0.015
Neisseria gonorrhoeae isolate 46 (GyrA: Wild type, ParC: Wild type, mtrR: Wild type, penA: Type II NonMosaic, A517G, ponA: Wild type, porB: G120K, A121D)	16	≤ 0.015	2	0.125	≤ 0.015
Neisseria gonorrhoeae isolate 47 (GyrA: S91F, D95N, ParC: S88P, mtrR: -35A Del, G45D, penA: Type X Mosaic, N513Y, ponA: L421P, porB: G120K, A121D)	32	0.5	4	0.25	0.125
Neisseria gonorrhoeae isolate 48 (GyrA: D95N, ParC: Wild type, mtrR: -35A Del, G45D, penA: Type II NonMosaic, A517G, ponA: Wild type, porB: G120K, A121D)	32	≤ 0.015	> 64	0.25	≤ 0.015
Neisseria gonorrhoeae isolate 49 (GyrA: Wild type, ParC: Wild type, mtrR: -35A Del, G45D, penA: Type XII NonMosaic, A517G, ponA: L421P, porB: G120D)	16	0.03	2	0.5	0.03
Neisseria gonorrhoeae isolate 50 (GyrA: Wild type, ParC: Wild type, mtrR: G45D, penA: Type I NonMosaic, ponA: Wild type, porB: G120D, A121N)	16	≤ 0.015	0.25	0.125	≤ 0.015
Neisseria gonorrhoeae isolate 51 (GyrA: Wild type, ParC: Wild type, mtrR: -35A Del, G45D, penA: Type II NonMosaic, A517G, ponA: L421P, porB: G120N, A121D)	16	≤ 0.015	0.5	0.25	≤ 0.015
Neisseria gonorrhoeae isolate 52 (GyrA: Wild type, ParC: Wild type, mtrR: -35A Del, penA: Type XXII NonMosaic, A517G, ponA: L421P, porB: G120K, A121D)	16	0.06	> 64	1	0.06
Neisseria gonorrhoeae isolate 53 (GyrA: Wild type, ParC: Wild type, mtrR: -35A Del, G45D, penA: Type II NonMosaic, A517G, ponA: L421P, porB: G120D)	32	0.03	2	0.5	0.06
Neisseria gonorrhoeae isolate 54 (GyrA: D95N, ParC: Wild type, mtrR: -35A Del, penA: Type XII NonMosaic, A517G, ponA: L421P, porB: G120K, A121N)	16	0.06	4	0.5	0.06
Neisseria gonorrhoeae isolate 55 (GyrA: Wild type, ParC: Wild type, mtrR: -35A Del, G45D, penA: Type I NonMosaic, ponA: L421P, porB: G120D, A121D)	32	≤ 0.015	1	0.5	0.03
Neisseria gonorrhoeae isolate 56 (GyrA: Wild type, ParC: Wild type, mtrR: -35A Del, penA: Type IV NonMosaic, A517G, G543S, ponA: L421P, porB: G120K, A121D)	32	0.03	1	0.25	0.06
Neisseria gonorrhoeae isolate 57 (GyrA: Wild type, ParC: Wild type, mtrR: -35A Del, G45D, penA: Type XXII NonMosaic, A517G, ponA: L421P, porB: G120D, A121D)	16	≤ 0.015	4	0.25	≤ 0.015

MIC of N. gonorrhoeae strains collected 1971-2005, agar dilution (CLSI M07); ranges 0.03-64 mg/L (penicillin, azithromycin), 0.015-1 (cefixime, ceftriaxone), 0.5-256 (spectinomycin); higher = less susceptible. No active / inactive call per row; the paper counts cefixime and ceftriaxone above 0.25 and azithromycin above 1 mg/L as non-susceptible. The source says 'penicillin'; penicillin G is assumed. Isolates are numbered anew.
